# Reference: the supplement of paper PMC9446081
# About 220 (0.56%) of roughly 39,000 compounds showed activity. The list shows a part of the results.
# Test system: Escherichia coli K-12 BW25113
# Test: relative growth (OD600 normalised to plate interquartile mean) (fraction); higher = less growth inhibition, active = 0.2 or less
# Conditions: 50 µM; LB; incubation time: overnight (16-24 h)
# 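Note: static incubation at 37 °C against the wild-type strain, values averaged over two biological replicates.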
row,Compound,relative growth
1,C[C@@H]1CCCCO[C@H](CN(C)C(=O)Nc2ccc3c(c2)OCO3)[C@H](C)CN([C@H](C)CO)C(=O)c2cc(NC(=O)NC3CCCCC3)ccc2O1,inactive: 1.01
2,O=C(CCCCCCC(=O)Nc1ccc([C@H]2C[C@H](c3ccccc3)O[C@H](c3ccccc3)O2)cc1)NO,inactive: 1.01
3,C[C@@H]1CCCCO[C@@H](CN(C)Cc2ccc(C(F)(F)F)cc2)[C@@H](C)CN([C@H](C)CO)C(=O)c2cc(NS(C)(=O)=O)ccc2O1,inactive: 1
4,C[C@@H]1CN([C@@H](C)CO)C(=O)c2cccc(NS(=O)(=O)c3cn(C)cn3)c2O[C@H]1CN(C)CC1CC1,inactive: 1.02
5,C[C@@H]1CN([C@H](C)CO)C(=O)Cc2cc(NC(=O)c3ccncc3)ccc2O[C@H]1CN(C)S(=O)(=O)c1ccc(Cl)cc1,inactive: 0.99
6,Cc1ccc(S(=O)(=O)Nc2ccc3c(c2)C(=O)N([C@H](C)CO)C[C@@H](C)[C@H](CN(C)C(=O)Nc2ccc(F)cc2)OCCCC[C@H](C)O3)cc1,inactive: 1.02
7,O=c1cc(Cl)[nH]c(=O)[nH]1,inactive: 0.982
8,COc1cccc(S(=O)(=O)N(C)C[C@H]2OCc3cn(nn3)CCCC(=O)N([C@@H](C)CO)C[C@@H]2C)c1,inactive: 0.978
9,CO[C@@H]1CN(C)C(=O)c2ccc(NC(=O)Nc3cccc(F)c3)cc2OC[C@@H](C)N(C(=O)Nc2cccc(F)c2)C[C@H]1C,inactive: 1.01
10,NNC(=O)CCCC[C@H]1SC[C@H]2NC(=O)N[C@H]21,inactive: 1.02
11,C[C@H](CO)N1C[C@H](C)[C@@H](CN(C)S(C)(=O)=O)OCCCC[C@H](C)Oc2ccc(NC(=O)Nc3cccc4ccccc34)cc2C1=O,inactive: 1.01
12,COCC#Cc1cnc2c(c1)C(=O)N([C@@H](C)CO)C[C@@H](C)[C@@H](CN(C)C(=O)c1ccc3c(c1)OCO3)O2,inactive: 0.984
13,COc1ccc(NC(=O)N(C)C[C@@H]2Oc3ccc(NS(C)(=O)=O)cc3C(=O)N([C@H](C)CO)C[C@H]2C)cc1,inactive: 0.968
14,C[C@@H]1CN([C@H](C)CO)C(=O)Cc2cc(NC(=O)Nc3cccc4ccccc34)ccc2O[C@H]1CN(C)S(=O)(=O)c1ccc(F)cc1,inactive: 1.03
15,OC[C@@H](O)[C@@H](O)[C@@H](O)CO,inactive: 1
16,O=C(C[C@@H]1CC[C@@H]2[C@H](COC[C@@H](O)CN2S(=O)(=O)c2ccccc2)O1)N[C@@H]1CCN(Cc2ccccc2)C1,inactive: 1
17,O=C(C[C@H]1C=C[C@H](NS(=O)(=O)c2ccccc2F)[C@@H](CO)O1)NCCCN1CCOCC1,inactive: 0.993
18,C[C@H]1CN([C@@H](C)CO)C(=O)c2cc(NC(=O)NC3CCCCC3)ccc2O[C@@H]1CN(C)S(=O)(=O)c1cn(C)cn1,inactive: 1.01
19,CCO[C@@H]1OC(C(=O)N2CCN(Cc3ccc4c(c3)OCO4)CC2)=C[C@H](C)[C@H]1CCCOC(=O)NCCCCCC(=O)NO,inactive: 0.997

row,Compound,relative growth
1,C[C@@H]1CN([C@@H](C)CO)C(=O)c2cccc(NS(=O)(=O)c3cccs3)c2O[C@@H]1CN(C)S(=O)(=O)c1cn(C)cn1,inactive: 1.01
2,C[C@H](CO)N1C[C@H](C)[C@@H](CN(C)S(=O)(=O)c2ccc(Cl)cc2)OCCCC[C@H](C)Oc2ccc(NC(=O)Nc3cccc4ccccc34)cc2C1=O,inactive: 1.02
3,COC1=C(OC)C(=O)C(C/C=C(\C)CC/C=C(\C)CC/C=C(\C)CC/C=C(\C)CC/C=C(\C)CC/C=C(\C)CC/C=C(\C)CC/C=C(\C)CC/C=C(\C)CCC=C(C)C)=C(C)C1=O,inactive: 0.976
4,CC(C)NC(=O)Nc1ccc2c(c1)C(=O)N([C@@H](C)CO)C[C@@H](C)[C@@H](CN(C)Cc1ccccc1)OCCCC[C@H](C)O2,inactive: 0.964
5,Cc1noc(C)c1S(=O)(=O)Nc1cccc2c1O[C@@H](CN(C)C(=O)Nc1ccccc1)[C@@H](C)CN([C@H](C)CO)C2=O,inactive: 0.978
6,C[C@H]1CN([C@@H](C)CO)C(=O)c2cccc(NC(=O)Nc3ccccc3)c2O[C@H]1CN(C)S(=O)(=O)c1cn(C)cn1,inactive: 0.987
7,C[C@H](CO)N1C[C@H](C)[C@@H](CN(C)S(=O)(=O)c2ccc(Cl)cc2)Oc2c(NC(=O)Nc3cccc4ccccc34)cccc2C1=O,inactive: 1.02
8,C[C@H]1CCCCO[C@H](CN(C)Cc2ccc(C(F)(F)F)cc2)[C@@H](C)CN([C@@H](C)CO)C(=O)c2cc(NC(=O)c3ccncc3)ccc2O1,inactive: 0.962
9,COC(=O)[C@H](Cc1ccccc1)N1CC2=CC(=O)[C@H](C3CC3)[C@H]2[C@@H]1[C@@H](O)CCn1cc(-c2cccc(/C=C/C(=O)NO)c2)nn1,inactive: 1
10,Br.Cn1c(=O)c2c(ncn2C)n(C)c1=O,inactive: 1.03
11,CC(C)Sc1n[nH]c(=O)[nH]c1=O,inactive: 0.86
12,CN(C)CCOC(=O)COc1ccc(Cl)cc1.Cl,inactive: 0.94
13,c1n[nH]nc1SSc1cn[nH]n1,inactive: 0.536
14,C[C@@H]1CN([C@H](C)CO)C(=O)c2cc(NS(=O)(=O)c3ccc(F)cc3)ccc2O[C@@H](C)CCCCO[C@H]1CN(C)Cc1ccc(C(F)(F)F)cc1,inactive: 1.02
15,CCCN(C)C[C@H]1OCCCC[C@H](C)Oc2ccc(NC(=O)CCC(F)(F)F)cc2C(=O)N([C@H](C)CO)C[C@@H]1C,inactive: 1
16,O=C(CCCCCC(=O)N/N=C/[C@H](O)[C@H](O)[C@@H](O)[C@@H](O)CO)NO,inactive: 0.989
17,CC(C)NCCCC[C@H](NC(=O)[C@H]1CCC(=O)N[C@@H](Cc2ccccc2)C(=O)N[C@H](Cc2ccc(O)cc2)C(=O)N[C@@H](CCCCNC(C)C)C(=O)N[C@H](CCCN=C(N)N)C(=O)N[C@@H](Cc2ccc3ccccc3c2)C(=O)NCC(=O)N1)C(N)=O,inactive: 1.01
18,C[C@H](CO)N1C[C@H](C)[C@@H](CN(C)C(=O)Nc2cccc3ccccc23)Oc2ccc(NC(=O)Cc3ccccc3)cc2C1=O,inactive: 1.06
19,COc1ccc(NC(=O)Nc2ccc3c(c2)C(=O)N([C@H](C)CO)C[C@H](C)[C@H](CN(C)CC2CCCCC2)OCCCC[C@@H](C)O3)cc1,inactive: 0.983
